Assay results reported in publication PMC9911399, “Two distinct binding modes provide the RNA-binding protein RbFox with extraordinary sequence specificity”.
Positions count from the first letter of the chain named. Some of the results follow.

T1: RBFOX1 RRM (Homo sapiens, UniProt Q9NWB1 109-208)
T1 sequence: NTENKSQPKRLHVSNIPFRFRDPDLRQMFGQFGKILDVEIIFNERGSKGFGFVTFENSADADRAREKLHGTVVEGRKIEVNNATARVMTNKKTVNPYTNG

B1: UGUGGGA (DNA:RNA)
RNA: GGGAGACCGGAAUUCAGAUUGUCCUGUGGGAUUAAAUCCCGUCGUAGCCACCA
DNA 1: CAATCTGAATTCCGGTCTCCC
DNA 2: TGGTGGCTACGACGGGATT
B2: CCAGCUG (DNA:RNA)
RNA: B1 RNA with U25C, G26C, U27A, G29C, G30U, A31G
DNA 1: CAATCTGAATTCCGGTCTCCC
DNA 2: TGGTGGCTACGACGGGATT
B3: UACUUGA (DNA:RNA)
RNA: B1 RNA with G26A, U27C, G28U, G29U
DNA 1: CAATCTGAATTCCGGTCTCCC
DNA 2: TGGTGGCTACGACGGGATT
B4: UUUGGUA (DNA:RNA)
RNA: B1 RNA with G26U, G30U
DNA 1: CAATCTGAATTCCGGTCTCCC
DNA 2: TGGTGGCTACGACGGGATT
B5: GGAUCUG (DNA:RNA)
RNA: B1 RNA with U25G, U27A, G28U, G29C, G30U, A31G
DNA 1: CAATCTGAATTCCGGTCTCCC
DNA 2: TGGTGGCTACGACGGGATT
B6: AAGCUCG (DNA:RNA)
RNA: GGGAGACCGGAAUUCAGAUUGUCCAAGCUCGUUAAAUCCCGUCGUAGCCACCA
DNA 1: CAATCTGAATTCCGGTCTCCC
DNA 2: TGGTGGCTACGACGGGATT
B7: GACAACG (DNA:RNA)
RNA: B6 RNA with A25G, G27C, C28A, U29A
DNA 1: CAATCTGAATTCCGGTCTCCC
DNA 2: TGGTGGCTACGACGGGATT
B8: AUUAGAU (DNA:RNA)
RNA: B1 RNA with U25A, G26U, G28A, G30A, A31U
DNA 1: CAATCTGAATTCCGGTCTCCC
DNA 2: TGGTGGCTACGACGGGATT
B9: UAAUACU (DNA:RNA)
RNA: B6 RNA with A25U, G27A, C28U, U29A, G31U
DNA 1: CAATCTGAATTCCGGTCTCCC
DNA 2: TGGTGGCTACGACGGGATT

Each binder was assayed against T1, RBFOX1 RRM (assay: EMSA; HiTS-Eq, 1 nM pool, 10 min; buffer printed only for the single-RNA assays: 10 mM Tris pH 7.5, 150 mM NaCl, 3.4 mM EDTA, 0.001% NP-40, 30 C). Details: tags: His6 N-terminal (pET28a); label: 5' 32P.
In short: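 Purified RbFox RRM (wild type or mutant) was equilibrated for 10 min in 50 µL with 1 nM of a 5′-radiolabelled pool of RNA with 7 randomized nucleotides, its flanks annealed to DNA oligonucleotides, across increasing protein concentrations. Free RNA was separated by 8% native PAGE, excised, reverse-transcribed, PCR-barcoded and sequenced on an Illumina HiSeq 2500. Relative association constants came from read-count changes of each variant against the control reaction, normalised to the cognate motif.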

Compared with B1, B2 is lower in binding signal: 0.00762 KA relative to UGCAUGU for the first, 0.00651 KA relative to UGCAUGU for the second.

Compared with B3, B4 is higher in binding signal: 0.0169 KA relative to UGCAUGU for the first, 0.017 KA relative to UGCAUGU for the second.

Compared with B5, B6 is lower in binding signal: 0.0205 KA relative to UGCAUGU for the first, 0.015 KA relative to UGCAUGU for the second.

First: B7
Second: B8
The binding signal of the first is higher: 0.00972 KA relative to UGCAUGU for the first, 0.00423 KA relative to UGCAUGU for the second.

With B9 the binding signal was 0.00565 KA relative to UGCAUGU.
